PubChem BioAssay AID485294 (National Center for Advancing Translational Sciences (NCATS), 2010)
Hit rate of the full screen: of about 370,000 compounds, about 150 (0.041%) were called active. Inconclusive means that the source gave no clear call. Such entries were picked first, then a sample of the others. Calls follow the shape of the dose curve; as a rule, active = well fitted inhibition curve with a large enough effect; inconclusive = small, poorly fitted or top-dose-only effect; inactive = flat fitted curve, though single readings scatter. No potency is given beside an inconclusive call; the fits are too rough.

target: Beta-lactamase (Escherichia coli (strain K12)) (UniProt P00811); assay: qHTS Inhibitors of AmpC Beta-Lactamase (assay with detergent); details: AmpC hydrolysis of nitrocefin, absorbance 480 nm, 0.01% Triton; activity change, negative = inhibition: at 114 µM (top of the series); also: nearly all actives have a fitted effect of over 25% in size;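 as to activity change, negative = inhibition: 0% = no-compound wells and -100% = no-enzyme wells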
UniProt P00811, sequence (P00811 whole entry, looked up): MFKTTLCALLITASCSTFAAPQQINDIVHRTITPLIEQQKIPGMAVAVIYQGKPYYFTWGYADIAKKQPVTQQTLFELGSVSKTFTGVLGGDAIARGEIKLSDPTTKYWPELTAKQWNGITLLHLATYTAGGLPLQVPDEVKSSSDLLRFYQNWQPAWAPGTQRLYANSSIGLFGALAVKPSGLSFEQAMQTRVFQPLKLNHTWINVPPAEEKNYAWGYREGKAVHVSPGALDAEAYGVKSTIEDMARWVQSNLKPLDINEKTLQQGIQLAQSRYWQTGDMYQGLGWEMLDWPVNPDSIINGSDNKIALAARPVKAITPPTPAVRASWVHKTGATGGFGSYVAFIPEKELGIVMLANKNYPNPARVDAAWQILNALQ
Summary of the method: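 20 mM phosphate pH 7.0 + 0.01% (detergent screen) or 0.0001% Triton X-100; 5.3 nM AmpC reagent; cpd preinc 15 min RT; nitrocefin (800 uM stock) to start; A480 q20 s × 4 min; Activity was normalised to no-enzyme and no-compound control wells.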
Potency is read from the fitted curve at half-maximal effect; tags tell the direction and shape of the fitted curve.

| SMILES | Potency | activity change, negative = inhibition |
| --- | --- | --- |
| CCOC(=O)c1ccccc1NC(=O)c1cccc2c1C(=O)N(C1CCN(C(=O)OCC)CC1)C2 | inconclusive [inhibitor, partial curve, poor fit] |  |
| c1nc(N2CCCCC2)c2[nH]cnc2n1 |  | inactive: -13.3% |
| CC[C@@](C)(NS(=O)(=O)OCC(Cl)(Cl)Cl)c1ccccc1 | inconclusive [inhibitor, partial curve, poor fit] |  |
| COc1cccc(CN(C)C(=O)Cc2c[nH]c3ccccc23)c1 |  | inactive: -7.05% |
| c1ccc(-c2cc3ccccc3[nH]2)cc1 |  | inactive: -7.15% |
| O=C(Nc1nccs1)c1ccc(Br)c(S(=O)(=O)N2CCCC2)c1 | inconclusive [inhibitor, full curve, poor fit] |  |
| CC(=O)c1ccc(OC2OCCOC2Oc2ccc(C(C)=O)cc2)cc1 (stereo not drawn) |  | inactive: -14.7% |
| CCOC(=O)c1c(S(=O)(=O)N2CCCCCC2)c(C)n(C)c1C | inconclusive [inhibitor, partial curve] |  |
| O=C(N/N=C/c1ccccn1)c1cc(-c2ccc(Cl)cc2)nc2ccccc12 | inconclusive [inhibitor, partial curve] |  |
| COc1ccc2oc(=Nc3ccccc3)c(-c3nc4ccccc4[nH]3)cc2c1 | inconclusive [inhibitor, full curve, poor fit] |  |
| CCNC(=O)CC1C(=O)N(c2ccc(F)cc2)C(=O)N1CCC(C)C (stereo not drawn) |  | inactive: -14.4% |
| O=C(Nc1ccc(-c2nc3c(ccc4ccccc43)o2)cc1)c1ccco1 |  | inactive: -1.62% |
| O=C(CSc1nc(-c2ccccc2)c(-c2ccccc2)o1)NCCCO | inconclusive [inhibitor, partial curve] |  |
| Cc1nc(-c2ccccc2)nc2[nH]ccc(=O)c12 | inconclusive [inhibitor, full curve, poor fit] |  |
| CS(=O)(=O)Nc1ccccc1C(=O)c1ccccc1 |  | inactive: -3.23% |
| Cc1ccc(NC(=O)c2ccc(Cn3cc(Br)cn3)o2)cc1 |  | inactive: 4.41% |
| CCc1ccccc1Nc1cc(C(=O)NCc2ccccn2)c2ccccc2n1 | inconclusive [inhibitor, full curve] |  |
| O=C(O)c1ccccc1C(=O)N1N=C2/C(=C/c3cccc([N+](=O)[O-])c3)CCCC2C1c1cccc([N+](=O)[O-])c1 (stereo not drawn) | inconclusive [inhibitor, single point] |  |
| CCN1CCN(CC(=O)Nc2c(OC)cccc2OC)CC1 |  | inactive: -16.6% |
| COc1cccc(C2=NO[C@@H]3C(=O)N(c4ccc5c(c4)OCCO5)C(=O)[C@H]23)c1OC |  | inactive: -14.7% |
| CN(C)C(CNC(=O)CCNC(=O)c1ccc(Cl)cc1)c1ccco1 (stereo not drawn) | inconclusive [inhibitor, full curve, poor fit] |  |
| Cc1c(Nc2ncnc3nc[nH]c23)c(=O)n(-c2ccccc2)n1C | inconclusive [inhibitor, full curve, poor fit] |  |

| SMILES | Potency | activity change, negative = inhibition |
| --- | --- | --- |
| COc1ccc(NC(=O)Cn2ccn(-c3ccc(F)c(F)c3)c(=O)c2=O)cc1Cl |  | inactive: 22.6% |
| Cn1c(SCc2ccccc2)nnc1C1CCCNC1 (stereo not drawn) | inconclusive [inhibitor, single point] |  |
| CC1=NNC(=O)/C1=C\c1cn(-c2ccccc2)nc1-c1ccc(Cl)cc1 |  | inactive: -0.528% |
| O=C(c1ccccc1)N1CCN(CC(O)COc2cccc3ccccc23)CC1 (stereo not drawn) | inconclusive [inhibitor, partial curve, poor fit] |  |
| COc1ccccc1C(=O)NCCC(=O)NCc1cccnc1 | inconclusive [inhibitor, full curve, poor fit] |  |
| C/C(CC(=O)NCC(C)C)=N\NC(=O)COc1cc(C)c(Br)cc1Br | inconclusive [inhibitor, full curve, poor fit] |  |
| Cn1c(N)c(C(=O)COC(=O)CCc2c[nH]c3ccccc23)c(=O)n(C)c1=O | inconclusive [inhibitor, single point] |  |
| CC(C)c1ccc(OCC(=O)Nc2ccc(S(=O)(=O)Nc3ncccn3)cc2)cc1 |  | inactive: 9.14% |
| Cc1ccccc1CS(=O)(=O)c1ccc(C(=O)N2CCOCC2)cc1[N+](=O)[O-] | inconclusive [inhibitor, full curve] |  |
| CC(N=Cc1cccc(O)c1O)c1ccccc1 (stereo not drawn) | inconclusive [inhibitor, single point] |  |
| O=C(COc1ccc2c3c(c(=O)oc2c1)CCCC3)NCCCN1CCOCC1 | inconclusive [inhibitor, single point] |  |
| Cc1ccc(-c2csc(N/N=C/C=C/c3ccccc3)n2)cc1 |  | inactive: -0.718% |
| O=C1CCCc2c1cc(C(=O)NCc1ccco1)c(=O)n2-c1ccccc1 | inconclusive [inhibitor, full curve, poor fit] |  |
| CCCC(NC(=O)C(C)NC(=O)CO/N=C1\C=C2CCC3C4CCC(C(C)=O)[C@@]4(C)CCC3[C@@]2(C)CC1)C(=O)O (stereo partly drawn) | inconclusive [inhibitor, full curve, poor fit] |  |
| CC12CCC(C(=O)Nc3cc(Cl)ccc3Cl)(C/C1=N\O)C2(C)C (stereo not drawn) | inconclusive [inhibitor, full curve, poor fit] |  |
| C=CCn1cc(C(=O)N2CCc3ccccc3C2)c(=O)c2cc(S(=O)(=O)N(CC)CC)ccc21 | inconclusive [inhibitor, full curve, poor fit] |  |
| FC(F)(Cl)c1nnc2ccc(Cl)nn12 | inconclusive [inhibitor, full curve, poor fit] |  |
| COc1ccc(Cc2nc(-c3ccc(Br)o3)no2)cc1OC | inconclusive [inhibitor, full curve, poor fit] |  |
| COc1ccc(CN(CC(=O)NC2CCCC2)C(=O)CCC(=O)Nc2cc(C)on2)cc1 | inconclusive [inhibitor, single point] |  |
| Cc1ccccc1CNC(=O)c1ccccc1C | inconclusive [inhibitor, full curve, poor fit] |  |
| Cn1c(CN2CCOCC2)c(C#N)c2ccccc21 | inconclusive [inhibitor, single point] |  |
